According to patent US8877771B2, “Treatment of solid tumors with rapamycin derivatives” (Novartis Pharmaceuticals Corporation, priority 2001, dated 2014):
Read-outs that look alike come from different tables or passages of the source.

Legend:
[1] = tested on: A549 human lung tumor xenografts; assay: Activity in A549 human lung tumor xenografts; assay type: in vivo, BALB/c nude mice
Experimental: (§1) • Fragments of A549 tumors (approx. 25 mg; derived from Cell line CCL 185, ATCC, Rockville Md., USA) are transplanted subcutaneously into the left flank of BALB/c nude mice. Treatment is started on day 7 or day 12 following tumor transplantation. The compound to be tested is administered p.o. once per day from day 7/12 to day 38/55, respectively. […] B.2 Activity in KB-31 Human Epidermoid Tumor Xenografts • Fragments of KB-31 tumors (approx. 25 mg; derived from the cell lines obtained from Roswell Park Memorial Institute Buffalo, N.Y., USA) are transplanted subcutaneously into the left flank of BALB/c nude mice. Treatment is started on day 7 or on day 10 following tumor transplantation. The compound to be tested is administered p.o. once per day from day 7/10 to day 25/35, respectively. […] B.3 Activity in CA20948 Rat Pancreatic Tumors • Tumors are established in male Lewis rats by subcutaneous injection of CA20948 tumor cell suspension derived from donor rats into the left flank. Treatment is started on day 4 post inoculation. The compound to be tested is administered p.o. once per day (6 days a week) from day 4 to day 9-15 post inoculation. Antitumor activity is expressed as TIC % as indicated above.

[2] = tested on: KB-31 human epidermoid tumor xenografts; assay: Activity in KB-31 human epidermoid tumor xenografts; assay type: in vivo, BALB/c nude mice; details: 2.5 mg/kg/day p.o.
Experimental: as §1

[3] = tested on: CA20948 rat pancreatic tumors; assay: Activity in CA20948 rat pancreatic tumors; assay type: in vivo, male Lewis rats
Experimental: as §1

[4] = tested on: normal human dermal fibroblast (NHDF); assay: bFGF-stimulated NHDF proliferation; details: same concentration range as HUVEC assay
[5] = tested on: human umbilical vein endothelial cells (HUVECs); assay: In vitro antiproliferative activity against HUVECs
KB-31 line = assay: Antiproliferative activity in combination with other agents (methylene blue staining); details: Compound A alone
HCT116 line = assay: as above; details: Compound A alone

CO[C@H]1C[C@@H]2CC[C@@H](C)[C@@](O)(O2)C(=O)C(=O)N2CCCC[C@H]2C(=O)O[C@H]([C@H](C)C[C@@H]2CC[C@@H](OCCO)[C@H](OC)C2)CC(=O)[C@H](C)/C=C(\C)[C@@H](O)[C@@H](OC)C(=O)[C@H](C)C[C@H](C)/C=C/C=C/C=C/1C [Compound A, 40-O-(2-hydroxyethyl)-rapamycin]
final T/C ([1]; 0.1 mg/kg p.o. once per day): 43%
final T/C ([1]; 0.5 mg/kg p.o. once per day): 16%
% regressions (transient) ([1]; 0.5 mg/kg p.o. once per day, on day 17): 38%
% regressions (persisting) ([1]; 2.5 mg/kg p.o. once per day): 41%
final T/C [2]: 25%
final T/C ([3]; 2.5 mg/kg p.o. daily (6 days a week)): 23%
final T/C ([3]; intermittent, 5 mg/kg twice per week): 32%
effect on bFGF-stimulated NHDF proliferation [4]: no significant effects
IC50 ([5]; read-out: IC50, FBS-stimulated proliferation, FBS-stimulated): > 10 nM
IC50 ([5]; read-out: IC50, VEGF-stimulated proliferation, VEGF-stimulated): 0.12 ± 0.022 nM
IC50 ([5]; read-out: IC50, bFGF-stimulated proliferation, bFGF-stimulated): 0.841 ± 0.396 nM
IC50 (KB-31 line): μM range
IC50 (HCT116 line): μM range
